Laboratory results from ChEMBL document CHEMBL4888484, “Replenishing the malaria drug discovery pipeline: Screening and hit evaluation of the MMV Hit Generation Library 1 (HGL1) against asexual blood stage Plasmodium falciparum ,using a nano luciferase reporter read-out” (2022).
“And” between values parts separate entries of the source, which are not always exact repeats. Equal entries are not always repeated. Among all 150,000 compounds or so, about 540 (0.36%) showed an effect of 50% or more. The list shows a part of the results.

System: Plasmodium falciparum
Assay: Primary screen in NF54 nanoGlo assay, in single point, at 2uM, 72h; a lower Z score goes with more inhibition
Format: functional, Erythrocyte
Settings: timepoint 72 hour

| SMILES | % Inhibition [%] | Z score | % Inhibition (2 µM) |
| --- | --- | --- | --- |
| CC(C)(C)c1ccc(C(=O)C(=O)NC2CCN(CC(N)=O)CC2)cc1 | -3 | 0.55 |  |
| CC1OCCC1(O)CN(Cc1ccccc1)C(=O)CC1CCCCC(=O)N1 (centres undefined) | 22 | -2.81 |  |
| CN(C(=O)c1cc2ccccc2o1)[C@H]1CCCN(CCCc2ccccc2)C1 | 2 | -0.24 |  |
| CCOC(=O)c1[nH]c(C)c(C(=O)N2CCC(CC(=O)NC3CCCCC3)CC2)c1C | -17 | 1.51 |  |
| CN(CCN1CCCC1=O)S(=O)(=O)CCc1ccccc1 | 0 | -0.02 |  |
| CCCn1cc(CNC(=O)N(C)CC2(C)COC2)cn1 | 6 | -0.76 |  |
| CCOC(=O)c1ccccc1NC(=O)NC[C@H](c1cccnc1)c1c[nH]c2ccccc12 | -7 | 1.3 |  |
| Cc1cc(-c2cccc(C(=O)N3CC=C[C@@H]3C(C)C)c2)nc(N)n1 | -12 | 1.37 |  |
| CCc1ocnc1C(=O)N1CCC2(CC1)[C@H](O)C[C@]2(C)OC | -11 | 2.15 |  |
| CC(C)OCCS(=O)(=O)N(C)C1Cc2ccccc2C1 | 7 | -1.12 |  |
| COc1ccc(OCc2nc(C(=O)N(C)[C@@H](C)c3ccon3)co2)cc1 | -7 | 1.28 |  |
| CN(C)C(=O)c1ccc(N2CCC3(CCCCC3)CC2)nc1 | -8 | 0.81 |  |
| Nc1ncccc1CN1CCOC[C@@H]1CC(=O)NCCn1cccn1 | -11 | 1.25 |  |
| Cc1n[nH]c(C(=O)N(C)Cc2ccns2)c1O | -12 | 1.93 |  |
| CC[C@H](C)n1nc(NC(=O)NCC2(C3CC3)CCC2)cc1C | -4 | 0.39 |  |
| CCCN1CCN(C(=O)CN2CCCC2=O)c2ccc(F)cc21 | 37 | -5.36 |  |
| CC(C#N)NC(=O)[C@@]12CCC[C@@H]1CN(Cc1ccccc1)C2 (some centres undefined) | -7 | 1.01 |  |
| Cc1n[nH]c(=O)c2cc(S(=O)(=O)N3CCN(c4ccccc4)CC3)cn12 | -5 | 0.67 |  |
| CCOC(=O)N1CC[C@H](NC(=O)c2cnc(C3CC3)nc2)C1 | -8 | 1.49 |  |
| Nc1nc(C2CC2)nc(N2CCO[C@H](c3ccccc3)C2)n1 | 5 | -0.99 |  |
| CN(C)c1ccc(CN2Cc3ccccc3OCC2=O)cc1 | 7 | -0.83 |  |
| COc1cccc([C@@H](O)Cn2nnc(Cc3ccccc3C)n2)c1 | -2 | 0.4 |  |

| SMILES | % Inhibition [%] | Z score | % Inhibition (2 µM) |
| --- | --- | --- | --- |
| O=C(Nc1nnc(C(F)F)s1)c1coc(CC2CC2)n1 | -6 | 1.01 |  |
| Cc1ccc(-c2cnc(C3CC3)o2)cc1S(=O)(=O)Nc1ccc(C(C)C)cc1 | -8 | 1.5 |  |
| COC1(C(=O)NC2CCCN(c3cc(C)nn3C)C2=O)CCOC1 (centres undefined) | 4 | -0.5 |  |
| CC(C)c1ccc([C@@H](NC(=O)NCc2ncn(C)n2)C(C)C)cc1 | 2 | -0.29 |  |
| CCc1nc2cc(-c3cccc(C(=O)NCC[C@H]4CCOC4)c3)ccc2o1 | 1 | -0.22 |  |
| CCNC(=O)[C@H]1CCN(c2nc(C)cc(C3CCC3)n2)C1 | -11 | 1.2 |  |
| O=C1[C@@H]2C[C@@H](O)CN2C(=O)CN1Cc1ccccc1 | -18 | 1.57 |  |
| O=C1Cc2ccccc2N1CCNS(=O)(=O)Cc1ccc(Cl)c(F)c1 | -2 | 0.35 |  |
| NC[C@H]1CCN(C(=O)c2cnc(-c3cc(Cl)cc(Cl)c3)nc2O)C1 | -13 | 1.68 |  |
| O=C(CN1CCCN(c2ccc(C(F)(F)F)cn2)CC1)Nc1ccccc1 | 0 | 0.05 |  |
| Cc1ccc(CCNC(=O)Nc2ccc3c(c2)O[C@@H](C)C(=O)N3C)o1 | -20 | 2 |  |
| O=C(c1ccc2[nH]ccc2c1)N1CCN(CC2CC2)[C@@H]2CS(=O)(=O)C[C@@H]21 | -5 | 0.62 |  |
| Cc1cc(NCC(=O)N2CCCCCC2)ccc1Br | -6 | 0.66 |  |
| C[C@]1(c2ccc(C#N)cc2)NC(=O)N(Cc2cccc3ccccc23)C1=O | -10 | 0.9 |  |
| O=S(=O)(c1cccc(F)c1)N1CCN(c2nc3nccc(-c4cc(Cl)ccc4Cl)n3n2)CC1 | -13 | 1.58 |  |
| CCn1ccnc1C1CCN(C(=O)c2cc(CC(C)C)nn2CC)CC1 | -10 | 1.63 |  |
| COc1cc(OC)cc(S(=O)(=O)NC(=O)[C@H]2CC[C@H](c3ccccc3)C2)c1 | -11 | 1.21 |  |
| Cc1cc2nccc(NC(=O)N3CC[C@H](c4ccco4)C3)n2n1 | -6 | 0.7 |  |
| CC(C)[C@H](O)C(=O)N(C)CCN(C)C1CCCC1 | -8 | 0.76 |  |
| COc1ccc(-c2nc(-c3ccc(=O)n(C)c3)no2)c(OC)c1 | 33 | -0.81 |  |
| CC(C)Cn1c(-c2ccccn2)n[nH]c1=O | 1 | -0.18 |  |
| CN1C(=O)CCC1C(=O)NC1COc2ccccc2C1O (centres undefined) | -10 | 1.56 |  |

| SMILES | % Inhibition [%] | Z score | % Inhibition (2 µM) |
| --- | --- | --- | --- |
| O=C(NCc1ccccc1F)c1csc(CN2CCC(Cc3ccccc3)CC2)n1 | -6 | 0.87 |  |
| COC1(C(=O)N2CC(C)OC(C)C2)CCNCC1 (centres undefined) | 5 | -0.99 |  |
| Cc1ccc(C2=NN(c3nc(-c4ccccc4)c4cc(Cl)ccc4n3)[C@H](c3ccc4c(c3)OCO4)C2)cc1 | 3 | -0.4 |  |
| CC(C)(C#N)c1nc(Cc2csc(-c3ccccc3)n2)no1 | -17 | 1.86 |  |
| O=C(c1cc(-c2ccccc2)n[nH]1)N1CC(c2nc(-c3ncccn3)no2)C1 | -8 | 1.58 |  |
| CC1CC(C)CN(S(=O)(=O)NCC(C)(O)c2ccco2)C1 (centres undefined) | -8 | 0.86 |  |
| NC(=O)c1nc(CN2CCn3nc(CCC(=O)NC4CC4)cc3C2)no1 | 4 | -0.69 |  |
| COC(=O)N[C@H](C(=O)NCc1ccc(-n2cnc3ccccc32)cc1Cl)C(C)C | 6 | -0.71 |  |
| CO[C@@H](CS(=O)(=O)Nc1ccnc2cccnc12)C1CCCC1 | -2 | 0.34 |  |
| COc1cc2c(cc1OC)[C@@H](c1c(F)cccc1Cl)N(C(=O)COc1ccc(Cl)cc1)CC2 | -6 | 0.59 |  |
| NC(=O)CC[C@H]1CCCN(c2nnnn2-c2ccc(-c3ccccc3)cc2)C1 | -14 | 1.91 |  |
| CN(Cc1ccsc1)C(=O)NCc1cccnc1N1CCOCC1 | -4 | 0.75 |  |
| CN1CCN(C(=O)c2cc(COc3ccc(F)c(F)c3)on2)C[C@H]1c1ccccc1 | -9 | 1.35 |  |
| CC(N[C@H]1CS(=O)(=O)C[C@@H]1S(=O)(=O)c1cccs1)c1ccccc1 (some centres undefined) |  |  | 9% and 0% |
| C=CCONC(=O)Nc1ccccc1Cl | -5 | 0.7 |  |
| CN(Cc1ccc2nonc2c1)C(=O)CCc1csc(N)n1 | -18 | 1.77 |  |
| O=C(O)[C@H]1CCCN1CCOc1ccccc1 | -13 | 1.24 |  |
| O=C1c2cccn2C[C@@H]1CC(=O)N1CCCCC1 | -15 | 1.74 |  |
| CS(=O)(=O)N1CCO[C@@H](CNC(=O)c2cccc3c2OCC3)C1 | -3 | 0.54 |  |
| Cc1ccn(CCC(=O)N2C[C@H]3COCC[C@@]3(O)[C@@H]3COCC[C@@H]32)n1 | -3 | 0.28 |  |
| Cc1cn2nc(N3CCc4nn(C(C)C)c(=O)cc4C3)sc2n1 | 29 | -3.28 |  |
| COc1ccccc1N1CCN2c3ccc(C(F)(F)F)cc3CC(C(=O)NC(C)C)C2C1 (centres undefined) | -9 | 1.01 |  |

| SMILES | % Inhibition [%] | Z score | % Inhibition (2 µM) |
| --- | --- | --- | --- |
| O=C(CS(=O)(=O)c1ccc2c(c1)OCCCO2)NC1CCCC1 | -29 | 3.42 |  |
| Cc1nc(-c2ccc(C)c(-n3cc(C(=O)Nc4cc(Cl)ccc4C)c(C)n3)c2)no1 | 7 | -0.79 |  |
| CCCc1ncncc1C(=O)NC[C@H]1CCN(c2ccccc2C)C1 | -3 | 0.39 |  |
| Cc1n[nH]c(C)c1CC(C)C(=O)NC1CC1c1ccc(F)cc1F (centres undefined) | -12 | 1.09 |  |
| c1cc(NC2CCOCC2)nc(C2CC2)n1 | -5 | 0.57 |  |
| CCC[C@H](NCCCN1C(=O)COc2ccccc21)C1CC1 | -15 | 1.3 |  |
| CN1C(=O)N(c2ccccn2)C(=O)[C@H]1c1cccc(Br)c1 | -9 | 1.14 |  |
| Cc1cc(C(=O)N(C)Cc2cnn(C)c2)no1 | -6 | 0.94 |  |
| CC1(C)COCCN1C(=O)CCn1nnc2ccccc2c1=O | -6 | 0.67 |  |
| CC1(C)C[C@@](C)(c2ccccc2)c2ccccc2N1 | -9 | 1.05 |  |
| O=c1[nH]c(-c2nc(-c3cnccn3)no2)cc2ccccc12 | 2 | -0.24 |  |
| Cc1cnc(C(C)NC(=O)N2CCOC(Cn3cccn3)C2)s1 (centres undefined) | -3 | 0.37 |  |
| CC(C)n1c(=O)c(NCc2ccc(F)c(Cl)c2)nc2ccncc21 | 9 | -1.41 |  |
| O=C(c1cnn2c1OCCC2)N(CCO)c1ccccc1 | -8 | 1.25 |  |
| COc1ccc2[nH]cc([C@@H](CC(=O)NCc3ccco3)C(C)C)c2c1 | -9 | 1.12 |  |
| CC(C)c1cc(C(=O)N2CCCCC[C@H]2c2c(Cl)cnn2C)no1 | -17 | 1.48 |  |
| Cc1cc(NCCc2ncccc2F)ncn1 | -7 | 0.84 |  |
| CO[C@H]1CCCN(C(=O)c2cn(C)c(C)cc2=O)C1 | -16 | 1.59 |  |
| COc1ccc(S(=O)(=O)[C@@H](CNC(=O)c2ccc(Br)cc2)c2cccnc2)cc1 | -18 | 3.39 |  |
